This passage reports relative growth results from the supplement of paper PMC9446081.

In all, about 39,000 compounds went through this assay and about 220 (0.56%) showed activity. The list shows a part of the results.
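Further: static incubation at 37 °C against the wild-type strain, values averaged over two biological replicates.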

The assay deals with Escherichia coli K-12 BW25113. As to the kind of experiment: relative growth (OD600 normalised to plate interquartile mean) (fraction); higher = less growth inhibition, active = 0.2 or less. The conditions noted are these: 50 µM; LB; incubation time: overnight (16-24 h).
As for `Cc1ccc(S(=O)(=O)N(C)C[C@H]2Oc3ccc(NC(=O)NC(C)C)cc3CC(=O)N([C@@H](C)CO)C[C@@H]2C)cc1`, the relative growth is inactive: 1.02.

In the case of `CCCC#Cc1cnc2c(c1)C(=O)N([C@H](C)CO)C[C@@H](C)[C@H](CN(C)C(=O)c1ccc3c(c1)OCO3)O2`, the relative growth is inactive: 1.02.

In the case of `C[C@@H]1CN([C@H](C)CO)S(=O)(=O)c2ccc(C3=CCCCC3)cc2O[C@H]1CN(C)C(=O)C1CCOCC1`, the relative growth is inactive: 1.02.

Regarding `CCS(=O)(=O)Nc1ccc2c(c1)C(=O)N(C)[C@@H]1CC[C@H](CC(=O)NCc3ccc(OC)cc3)O[C@H]1CO2`, the relative growth is inactive: 1.03.

For `C=C/C=C/[C@@H]1C(=C)CN2[C@H]1[C@H](Cc1ccccc1)OC(=O)[C@@H]2Cc1ccc(-n2cc(COc3ccccc3/C=C(C)/C=C/C(=O)NO)nn2)cc1`, the relative growth was inactive: 0.958.

Regarding `O=C(O)c1cc2cc(Cl)ccc2[nH]1`, the relative growth is inactive: 0.99.

In the case of `COc1ccc(S(=O)(=O)N(C)C[C@@H]2Oc3ccc(NS(=O)(=O)c4cn(C)cn4)cc3C(=O)N([C@H](C)CO)C[C@H]2C)cc1`, the relative growth is inactive: 0.998.

For the compound `CCCNC(=O)C[C@H]1CC[C@H]2[C@@H](COc3ccc(NC(=O)Nc4ccc(C#N)cc4)cc3C(=O)N2C)O1`, the relative growth is inactive: 0.961.

With `C[C@@H]1CN([C@@H](C)CO)S(=O)(=O)c2ccc(C#Cc3ccncc3)cc2O[C@H]1CN(C)S(=O)(=O)c1ccc(F)cc1`, the relative growth is inactive: 0.993.

Take `Cc1ccc(S(=O)(=O)N(C)C[C@H]2Oc3c(NS(=O)(=O)c4c(C)noc4C)cccc3C(=O)N([C@@H](C)CO)C[C@H]2C)cc1`: the relative growth was inactive: 1.01.

In the case of `CO[C@@H]1CN(C)C(=O)c2ccc(NC(C)=O)cc2OC[C@@H](C)N(S(=O)(=O)c2cn(C)cn2)C[C@@H]1C`, the relative growth is inactive: 0.958.

For the compound `C[C@H]1CN([C@@H](C)CO)C(=O)Cc2cc(NS(C)(=O)=O)ccc2O[C@@H]1CN(C)Cc1ccc(C(F)(F)F)cc1`, the relative growth was inactive: 0.893.

As for `C[C@H]1CN([C@@H](C)CO)C(=O)c2cccc(NC(=O)c3ccc(-c4nccs4)cc3)c2O[C@H]1CN(C)Cc1ccc(Cl)c(Cl)c1`, the relative growth is inactive: 1.02.

For `O=C(CCCCCNC(=O)OCc1ccc(CO[C@@H]2C[C@H](c3ccc(Br)cc3)C=C(C(=O)N3CCCCCCC3)O2)cc1)NO`, the relative growth is inactive: 0.983.

Regarding `CN1CCN(C(=O)C[C@H]2CC[C@@H]3[C@H](COC[C@H](O)CN3C(=O)C3CCOCC3)O2)CC1`, the relative growth is inactive: 0.988.

For `Cc1noc(C)c1S(=O)(=O)Nc1ccc2c(c1)CC(=O)N([C@H](C)CO)C[C@H](C)[C@H](CN(C)Cc1ccccc1)O2`, the relative growth was inactive: 1.01.

Take `CCC(=O)N[C@H]1C=C[C@@H](CC(=O)OC)O[C@H]1CO`: the relative growth was inactive: 1.01.

On to `C[C@@H]1CCCCO[C@H](CN(C)Cc2ccc(C(F)(F)F)cc2)[C@@H](C)CN([C@H](C)CO)C(=O)c2cc(NC(=O)c3ccncc3)ccc2O1`, for which the relative growth was inactive: 0.962.

Take `C[C@H]1CN([C@@H](C)CO)C(=O)c2cc(Br)cnc2O[C@@H]1CN(C)S(=O)(=O)c1ccccc1`: the relative growth was inactive: 1.

`CCOC(=O)c1cnc[nH]1`: the relative growth was inactive: 0.976.

Regarding `C[C@H]1CCCCO[C@@H](CN(C)Cc2ccc3c(c2)OCO3)[C@@H](C)CN([C@@H](C)CO)C(=O)c2cc(NC(=O)Nc3ccc4c(c3)OCO4)ccc2O1`, the relative growth was inactive: 0.942.

For `C[C@H](N)CCCP(=O)(O)O`, the relative growth is inactive: 1.05.

With `C[C@H]1CN([C@@H](C)CO)C(=O)c2cc(C#Cc3cccc(F)c3)cnc2O[C@@H]1CN(C)CC1CCOCC1`, the relative growth is inactive: 1.01.

In the case of `O=C(CN1CCOCC1)NCC[C@H]1CC[C@H](NC(=O)c2ccccc2F)[C@@H](CO)O1`, the relative growth was inactive: 1.01.

Turning to `COCCNC(=O)C[C@H]1C[C@@H]2c3cc(NC(=O)CN(C)C)ccc3O[C@@H]2[C@@H](CO)O1`, the relative growth is inactive: 1.04.

As for `C[C@H]1CN([C@@H](C)CO)C(=O)c2cc(NC(=O)Nc3ccc4c(c3)OCO4)ccc2O[C@H]1CN(C)S(C)(=O)=O`, the relative growth was inactive: 1.

For `Cc1ccc(S(=O)(=O)N(C)C[C@@H]2Oc3c(NS(=O)(=O)c4cccs4)cccc3C(=O)N([C@@H](C)CO)C[C@H]2C)cc1`, the relative growth is inactive: 1.01.

For `Cc1ccccc1OC(=O)c1sc2ccccc2c1Cl`, the relative growth was inactive: 0.966.

Take `CNC[C@@H]1OCCCC[C@H](C)Oc2ccc(NC(=O)Nc3ccc(C(F)(F)F)cc3)cc2C(=O)N([C@@H](C)CO)C[C@H]1C`: the relative growth was inactive: 0.983.

Turning to `CC(=O)O[C@H](C[C@H](O)C(C)(O)CCC=C(C)C)/C(C)=C/COC[C@@H](O)[C@@H](O)[C@@H](O)[C@@H](O)CO` (stereo not given in full), the relative growth was inactive: 0.968.

Regarding `C[C@@H]1CCCCO[C@@H](CN(C)C(=O)CCC(F)(F)F)[C@@H](C)CN([C@H](C)CO)C(=O)c2cc(NC(=O)NC3CCCCC3)ccc2O1`, the relative growth was inactive: 1.

Take `C[C@@H]1CCCCO[C@H](CN(C)Cc2ccc(C(=O)O)cc2)[C@H](C)CN([C@H](C)CO)C(=O)c2cc(NC(=O)Nc3cccc4ccccc34)ccc2O1`: the relative growth was inactive: 0.954.

Turning to `COc1cccc(S(=O)(=O)Nc2ccc3c(c2)[C@@H]2C[C@H](CC(=O)NCc4cccc(F)c4)O[C@@H](CO)[C@@H]2O3)c1`, the relative growth is inactive: 1.03.

As to `Cc1cn([C@@H]2C[C@H](O)[C@@H](CO)O2)c(=O)[nH]c1=O`, the relative growth was inactive: 0.988.

For `O=c1ccc2cc3ccoc3cc2o1`, the relative growth was inactive: 0.973.

With `C[C@@H]1CCCCO[C@@H](CN(C)S(=O)(=O)c2cn(C)cn2)[C@H](C)CN([C@H](C)CO)C(=O)c2cc(NC(=O)Nc3ccc(C(F)(F)F)cc3)ccc2O1`, the relative growth is inactive: 1.02.

On to `O=c1cc(-c2ccccc2)oc2ccc(O)cc12`, for which the relative growth was inactive: 1.

As to `O=C(C[C@H]1CC[C@@H]2[C@H](COC[C@H](O)CN2C(=O)c2ccncc2)O1)NC1CCC1`, the relative growth is inactive: 1.01.

Regarding `O=C(OC1Cc2c(O)cc(O)cc2OC1c1cc(O)c(O)c(O)c1-c1c(C2Oc3cc(O)cc(O)c3CC2OC(=O)c2cc(O)c(O)c(O)c2)cc(O)c(O)c1O)c1cc(O)c(O)c(O)c1` (stereo not given), the relative growth was inactive: 1.05.

As for `C[C@@H]1CN([C@@H](C)CO)C(=O)c2cc(NC(=O)Cc3ccccc3)ccc2O[C@@H](C)CCCCO[C@H]1CN(C)C(=O)C1CCCCC1`, the relative growth is inactive: 1.02.
